Test results: the RNAGym collection of RNA variant scans (doi:10.1073/pnas.2313332121)
Variants at the background level are over-represented here.

B1: TPR 5TU (parent)
chain: GGAUCUUCUCGAUCUAACAAAAAAGACAAAUCUGCCACAAAGCUUGAGAGCAUCUUCGGAUGCAGAGGCGGCAGCCUUCGGUGGCGCGAUAGCGCCAACGUUCUCAACUAUGACACGCAAAACGCGUGCUCCGUUGAAUGGAGUUUAUCAUG

Variants of: B1
Experiment: polymerase ribozyme fitness, log enrichment relative to wild type (log ratio); higher = more active; in vitro selection for triplet polymerase activity
Procedure, shortened: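 Each subunit of a heterodimeric triplet polymerase ribozyme was represented by a PCR-built, transcribed mutant library that underwent triplicate single-round in vitro selection with frozen incubation at −7 °C. Extended constructs were recovered by gel excision, streptavidin-bead capture and RT-PCR, and Illumina sequencing of input and output libraries kept genotypes with ≥10 input reads and ≥1 read per output. Fitness is the logarithm of genotype enrichment relative to wild-type enrichment, from inverse-variance-weighted replicate averages, with a logarithm base of 2.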

Polymerase ribozyme fitness (log ratio), ≤ -4.2:
GGAUCUUCUCGAUCUAACAAAAAAGACAAAUCUGCCACAAAGCUUGAGAGCAUCUUCGGAUGCACAGGCGGCAGCCUUCGGUGGCGUGAUAGCGCCAACGUUCUCAACUAUGACACGCAAAACGCGUGCUCCGUUGAAUGGAGUUUAUCAUG [G65C C87U]
GGAUCUUCUCGAUCUAACAAAAAAGACAAAUCUGCCACAAAGCUUGAGAGCAUCUUCGGAUGCAAAGGCGGCAGGUUUCGGUGGCGCGAUAGCGUCAACGUUCUAAACUAUGACACGCAAUACGCGUGCUCCGUUGAAUGGAGUUUAUCAUG [G65A C75G C76U C95U C105A A121U]
GGAUCUUCUCGAUCUAACAAAAAAGACAAAUCUGCCACAAAGCUUGAGAGCAUCUUCGGAUGCGGAGACGGCAGCCUUCGGUGGCUCGAUAGCGCAAACGUUCUCAACUAUGACACGCAAAAAGCGUGCUCCGUUGAAUGGAGUUUAUCAUG [A64G G68A G86U C96A C123A]
GGAUCUUCUCGAUCUAACAAAAAAGACAAAUCUGCCACAAAGCUUGAGAGCAUCUUCGGAUGCGGAGGCGGCAGCCUUCGGUGGCGCGAUUGCGCCAACGUUCUCAACUAUGACACGCAAAACGAGUGCUCCGUUGAAUGGAGUUUAUCAUG [A64G A91U C125A]
GGAUCUUCUCGAUCUAACAAAAAAGACAAAUCUGCCACAAAGCUUGAGAGCAUCUUCGGAUGCAAGGGCAGCAGCCUUCGGUGGUUCGAUAGCGCCAACGUUCUCAACUAUGACACGCAAAACUCGUGCUACGUUGAAUGGAGUUUAUCAUG [G65A A66G G70A C85U G86U G124U C131A]
GGAUCUUCUCGAUCUAACAAAAAAGACAAAUCUGCCACAAAGCUUGAGAGCAUCUUCGGAUGCCGAGGCGACAGCCUUCGGUGGCGCGAUAGAGCCAACGUUCUCAACUAUGACACGCAAAGCGCGUGCUCCGUUGAAUGGAGUUUAUCAUG [A64C G71A C93A A122G]
GGAUCUUCUCGAUCUAACAAAAAAGACAAAUCUGCCACAAAGCUUGAGAGCAUCUUCGGAUGCAGCGGCGGCAGCCUUAGGUGGCGCGAUAGCGCCAACGUUGUCAACUAUGACACGCAAAACGCGUGCUCCGUUGAAUGGAGUUUAUUAUG [A66C C79A C103G C149U]
GGAUCUUCUCGAUCUAACAAAAAAGACAAAUCUGCCACAAAGCUUGAGAGCAUCUUCGGAUGCAAAGGCGGCAGCCUUCGGUGGCGCGAUAGCGCAAACGUUGUCAACUAUGACACGCAAAACGCGUGCUCCGUUGAAUGGAGUUUAUCUUG [G65A C96A C103G A150U]
GGAUCUUCUCGAUCUAACAAAAAAGACAAAUCUGCCACAAAGCUUGAGAGCAUCUUCGGAUGCAAAGGCGGCAGCCUUCGGUGGCGCGAUAGCGCCAACGUUCUCAACUAUGACACGCAAAACGCGUACUCCGUUGAAUGGAGUUUAUCAUG [G65A G128A]
GGAUCUUCUCGAUCUAACAAAAAAGACAAAUCUGCCACAAAGCUUGAGAGCAUCUUCGGAUGCACAGCCGGCAGCCUUCGGUGGCGCGAUAGCGCCAACGUUCUCGACUAUGACACGCAAAACGCGUGCUCCGUUGAAUGGAGUUUAUCAUG [G65C G68C A106G]
GGAUCUUCUCGAUCUAACAAAAAAGACAAAUCUGCCACAAAGCUUGAGAGCAUCUUCGGAUGCAAAGGCGGCAGCCUUCGGUGGCGCGAUAACGCCAACGUUCUCAACUAUGACACGCAAAACGCGUGCUCCGUUGAAUGGAGUUUAUCAUG [G65A G92A]
GGAUCUUCUCGAUCUAACAAAAAAGACAAAUCUGCCACAAAGCUUGAGAGCAUCUUCGGAUGCAUAGGCGGCAGCCUUCGGUGACGCGAUAGCGCCAACGUUCUCAACUAUGACACGCAAAACGCAUGCUCCGUUGAAUGGAGUUUAUCAUG [G65U G84A G126A]
GGAUCUUCUCGAUCUAACAAAAAAGACAAAUCUGCCACAAAGCUUGAGAGCAUCUUCGGAUGCACAGGCGGCAGCCUUCGGUCGCGCGAUAGCGCCAACGUUCUCAACUAUGACACGCAAAACGCUUGCUCCGUUGAAUGGAGUUUAUCAUG [G65C G83C G126U]
GGAUCUUCUCGAUCUAACAAAAAAGACAAAUCUGCCACAAAGCUUGAGAGCAUCUUCGGAUGCAUAGGCGGCAGCCUUCGGUGGCGCGAUAGCGCCCAGGUUCUCAACUAUGACACGCAAAACGUGUGCUCCGUUGAAUGGAGUUUAUCAUG [G65U A97C C99G C125U]
GGAUCUUCUCGAUCUAACAAAAAAGACAAAUCUGCCACAAAGCUUGAGAGCAUCUUCGGAUGCACAGGCGGCAGCCUUCGGUGGAGCGAUAGCGCCAACGUUCUCAACUAUGACACGCAAAACGCGUGCUCCGUUGAAUGGAGUUUAUCAUG [G65C C85A]
GGAUCUUCUCGAUCUAACAAAAAAGACAAAUCUGCCACAAAGCUUGAGAGCAUCUUCGGAUGCGGAGGCGGCAGCCUUCGGUGGCGCGAUUGCGCCCACGUUCUCAAUUAUGACACGCAAAACGCGUGCUCCGUUGAAUGGAGUUUAUCAUG [A64G A91U A97C C108U]
GGAUCUUCUCGAUCUAACAAAAAAGACAAAUCUGCCACAAAGCUUGAGAGCAUCUUCGGAUGCAUAGGCGGCAGCCUUCGGUAGCGCGAUAGCGCCAACGUUCUUAACUAUGACACGCAAAACGCGUUCUCCGUUGAAUGGAGUUUAUCAUG [G65U G83A C105U G128U]
GGAUCUUCUCGAUCUAACAAAAAAGACAAAUCUGCCACAAAGCUUGAGAGCAUCUUCGGAUGCUGAGACGGCAGCCUUCGGUGGCGAAAUAGCGCCAACGUUCUCAACUAUGACACGCAAAACCCGUGCUCCGUUGAAUGGAGUUUAUCAUG [A64U G68A C87A G88A G124C]
GGAUCUUCUCGAUCUAACAAAAAAGACAAAUCUGCCACAAAGCUUGAGAGCAUCUUCGGAUGCAUAGGCGGCAGCCUUCGGUUGCGCGAUAGCGCCAACGUUCUCAACUAUGACACGCAAAACGCGUGCUCCGUUGAAUGGUGUUUAUCAUG [G65U G83U A142U]
GGAUCUUCUCGAUCUAACAAAAAAGACAAAUCUGCCACAAAGCUUGAGAGCAUCUUCGGAUGCGGACGCGGCAGCCUUCGGUGGCGCGAUGGGGCCAACGUUCUUAACUAUGACACGCAAAACGCGUGCUCCGUUGAAUGGAGUUUAUCACG [A64G G67C A91G C93G C105U U151C]
GGAUCUUCUCGAUCUAACAAAAAAGACAAAUCUGCCACAAAGCUUGAGAGCAUCUUCGGAUGCCGAGGCGGCAGCCUUCGGAGGCGCGAUAGCGCCAACGUUGUCAACUAUGACACGCAAAACGCGUGCUCCGUUGAAUGGAGUUUAUCAUG [A64C U82A C103G]
GGAUCUUCUCGAUCUAACAAAAAAGACAAAUCUGCCACAAAGCUUGAGAGCAUCUUCGGAUGCUGCGGCGGCAGCCUUCGGUGGCGCUAUAGCGCCAACGUUCUCAACUAUGACACGCGAAACGCGUGCUCCGUUGAAUGGAGUUUACCAUG [A64U A66C G88U A119G U148C]
GGAUCUUCUCGAUCUAACAAAAAAGACAAAUCUGCCACAAAGCUUGAGAGCAUCUUCGGAUGCUGAGGCGGCAGCCUUCGGUGGAGCGAUAGCGCCAACGUUCUCAACUAUGACACGCAAAACGCGUGCUCCGUUGAAUGGAGUUUAUCAUG [A64U C85A]
GGAUCUUCUCGAUCUAACAAAAAAGACAAAUCUGCCACAAAGCUUGAGAGCAUCUUCGGAUGCCGAGGCGGCAGCCUUCGAUAGCGCGAUAGCGCCAACGUUCUCAACUAUGACACGCAAAACGCGUGCUCCGUUGAAUGGAGUUUAUCAUG [A64C G81A G83A]
GGAUCUUCUCGAUCUAACAAAAAAGACAAAUCUGCCACAAAGCUUGAGAGCAUCUUCGGAUGCAAAGGCGGCAGCCUUCGGUGUCGCGAUGGCGCCAACGUUUUCAACUAUGACACGCAAAACGCGUGCUCCGUUGAAUGGAGUUUAUCAUG [G65A G84U A91G C103U]
GGAUCUUCUCGAUCUAACAAAAAAGACAAAUCUGCCACAAAGCUUGAGAGCAUCUUCGGAUGCGGAGUCGGCAGCCUUCGGUGGCGCGAUAGCGCCAACGUUCUCAACUAUGACACGCAAAACGCGUGCUCCGUUGAAUGGAGUUUAUCAUG [A64G G68U]
GGAUCUUCUCGAUCUAACAAAAAAGACAAAUCUGCCACAAAGCUUGAGAGCAUCUUCGGAUGCAAAGGCAGCAGCCUUCGGUGGGGCGAUAGCGCCAACGUUCUCGACAAUGACACCCAAAACGCGUGCUCCGUUGAAUGGAGUUCAUCAUG [G65A G70A C85G A106G U109A G117C U146C]
GGAUCUUCUCGAUCUAACAAAAAAGACAAAUCUGCCACAAAGCUUGAGAGCAUCUUCGGAUGCGGAGGCGGCAGCCUUCGGUGGCGCGGUAGCGCCAACGUUCUCAACUAUGACACGCUAAACGCGUGCUCCGUUGAAUGGAGUUCAUCAUG [A64G A89G A119U U146C]
GGAUCUUCUCGAUCUAACAAAAAAGACAAAUCUGCCACAAAGCUUGAGAGCAUCUUCGGAUGCAACCGCGGCAGCCUUCGGUGGCGGGAUAGCGCCAACGUUCUCAACUAUGACACGCAAAACGCGUGCUCCGUUGAAUGGAGUUUAUCAUG [G65A A66C G67C C87G]
GGAUCUUCUCGAUCUAACAAAAAAGACAAAUCUGCCACAAAGCUUGAGAGCAUCUUCGGAUGCAGCGGCGGCGGCCUUCGGUGGCGCGAUAGCGCCAACGUGCUCAACUAUGACACGCAAAACGCGUGCUCCGUUGAAUGGAGUUUAUCAUG [A66C A73G U102G]
GGAUCUUCUCGAUCUAACAAAAAAGACAAAUCUGCCACAAAGCUUGAGAGCAUCUUCGGAUGCAUAGGCGGCAGCCUUCGGUGGCGCGAUAGCGCCAACGUUCUCAACUAUGACACGCAAAACGCGUGCUCCGUUGAAAGGAGUUUAUCAUG [G65U U139A]
GGAUCUUCUCGAUCUAACAAAAAAGACAAAUCUGCCACAAAGCUUGAGAGCAUCUUCGGAUGCUGAGGCGACAGCCUUCGGUGGCGCGAUAGCGCGAAGUUUCUCAACUAUGACACGCAAAACGCGUUCUCCGUUGAAUGGAAUUUAUCAUG [A64U G71A C96G C99G G100U G128U G143A]
GGAUCUUCUCGAUCUAACAAAAAAGACAAAUCUGCCACAAAGCUUGAGAGCAUCUUCGGAUGCUGAGGCGGCAGCCUUCGGUGGGGCGAUAGCGCCAACGUUCUCAACUAUGACACGCAAAACGCGUGCUCCGUCGAAUGGAGGUUAUCUUG [A64U C85G U135C U144G A150U]
GGAUCUUCUCGAUCUAACAAAAAAGACAAAUCUGCCACAAAGCUUGAGAGCAUCUUCGGAUGCAGCGGCGGCGGCCUUCCGUGGCGCGAUCGCGCCAACGUUCUCAACUAUGACACGAAAAACGCGUGCUCCGUUGAAUGGAGUUUAUCAUG [A66C A73G G80C A91C C118A]
GGAUCUUCUCGAUCUAACAAAAAAGACAAAUCUGCCACAAAGCUUGAGAGCAUCUUCGGAUGCGGAGGCGGCAGCCUUCAGUGUCGCGAUAGCGCCAACUUUCUCAACUAUGACACGCAAGAAGCGUGCUCCGUUGAAUGGAGUUUAUCAUG [A64G G80A G84U G100U A121G C123A]
GGAUCUUCUCGAUCUAACAAAAAAGACAAAUCUGCCACAAAGCUUGAGAGCAUCUUCGGAUGCAAAGGCGGCAGACUUCGGUGGCGUGAUAGCGCCAACGUUCUCAACUAUGAUACGCAAAACGCGUGCUCCGUUGAAUGGAGUUUAUCAUG [G65A C75A C87U C114U]
GGAUCUUCUCGAUCUAACAAAAAAGACAAAUCUGCCACAAAGCUUGAGAGCAUCUUCGGAUGCCGAGGCGGAAGCCUUCGGUGGCGCGAUAGCGUCAACGUUCUCAACUAUGACAGGCAACACGCGUGCUCCGUUGACUGGAGUUUAUCAUG [A64C C72A C95U C116G A121C A138C]
GGAUCUUCUCGAUCUAACAAAAAAGACAAAUCUGCCACAAAGCUUGAGAGCAUCUUCGGAUGCACAGGCGGCUGCCUUCGUUGGGGCGUUAGCGGCAACGUUCUCAACUAUGACACGCAAAACGCGUGCUCCGUUGAAUGGAGUUUAUCAUG [G65C A73U G81U C85G A89U C95G]
